Measurements as given in PubChem BioAssay AID2451 (National Center for Advancing Translational Sciences (NCATS), 2010).
Values joined by “and” are separate entries in the source; they are usually repeats but may differ in a detail not shown here. Equal values may be shown once. Among all 290,000 compounds or so, about 2,100 (0.72%) were called active. The inconclusive results got no clear call from the source; some entries with a clear call stand among them for comparison. Calls come from the whole dose curve; as a rule, active = well fitted inhibition curve with a large enough effect; inconclusive = small, poorly fitted or top-dose-only effect, or effect the other way; inactive = flat fitted curve, though single readings scatter. Potencies beside an inconclusive call are fits to weak or partial responses and may not hold up.

The compounds below were run against Fructose-bisphosphate aldolase (Giardia intestinalis (strain ATCC 50803 / WB clone C6)) (UniProt A8B2U2) (assay: qHTS Assay for Inhibitors of Fructose-1,6-bisphosphate Aldolase from Giardia Lamblia). Conditions: purified Giardia FBPA; series mostly up to 59.6 µM.
Procedure, shortened: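 40 nM FBPA preincubated 10 min at RT with compound (up to 57.5 uM final), then substrate plus GAPDH/TPI/NAD/arsenate coupling and diaphorase/resazurin added. Fluorescence read after 20 min at RT, 525/598 nm.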
Note: nearly all actives have a fitted effect of over 55% in size.
Potency is the fitted concentration of half-maximal effect; tags give direction and shape of the fitted curve.

Sequence of UniProt A8B2U2 (A8B2U2 whole entry, looked up): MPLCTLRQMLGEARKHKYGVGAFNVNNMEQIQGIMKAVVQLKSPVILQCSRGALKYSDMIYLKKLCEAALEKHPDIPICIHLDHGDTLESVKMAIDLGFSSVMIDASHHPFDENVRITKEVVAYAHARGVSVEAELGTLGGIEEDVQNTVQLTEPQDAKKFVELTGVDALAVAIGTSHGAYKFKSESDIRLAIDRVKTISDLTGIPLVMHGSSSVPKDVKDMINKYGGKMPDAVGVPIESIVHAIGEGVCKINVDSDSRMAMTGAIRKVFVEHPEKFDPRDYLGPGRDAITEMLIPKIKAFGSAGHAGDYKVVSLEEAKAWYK

| SMILES | Potency |
| --- | --- |
| COc1ccc(-c2cnnn2-c2ccc(NC(=O)/C=C/c3ccc(OC)c(OC)c3)cc2)cc1 | inactive |
| Cc1ccc(C)c(S(=O)(=O)N2CCN(CC(=O)N3CCc4ccccc4C3)CC2)c1 | inconclusive: 19.9 µM [inhibitor, partial curve] |
| CC(=O)NS(=O)(=O)c1ccc(N/C(N)=N/c2nc(C)cc(C)n2)cc1 | inconclusive: 22.4 µM [inhibitor, partial curve] |
| CN(C)C(=S)SSC(=S)N(C)C | active: 1.58 µM and active: 39.8 µM |
| Cn1cccc1Cc1nnc(SCC(=O)N2CCN(c3ccccc3)CC2)n1-c1ccc(F)cc1 | inactive |
| O=C1C=CC(=O)c2c1ccc1c2ccc2ccccc21 | inconclusive: 14.1 µM [inhibitor, partial curve] |
| COc1cc(C(C)=O)ccc1OCCCN1CCC(Cc2ccccc2)CC1 | inconclusive: 12.6 µM [inhibitor, partial curve] |
| CC(C)(C)OC(=O)NCCCC[C@H](NC(=O)c1nc[nH]c1C(=O)NCc1ccccc1)C(=O)OC(C)(C)C | inconclusive: 17.7 µM [inhibitor, single point] |
| COc1ccc(NC(=S)Nc2ncccc2C)cc1OC | inconclusive: 15.8 µM [inhibitor, partial curve] |
| O=C(NC(=S)N1CCCC(C(F)(F)F)C1)c1ccc(F)cc1 (centres undefined) | inconclusive: 14.1 µM [inhibitor, partial curve] |
| Cc1cc(NS(=O)(=O)c2ccc(NS(=O)(=O)c3ccc(CC(C)C)cc3)cc2)nc(C)n1 | inconclusive: 17.7 µM [activator, single point] |
| N#CC1=C2SCN(Cc3ccco3)CN2C(=O)CC1c1ccc(Cl)cc1 (centres undefined) | inconclusive: 5.61 µM [inhibitor, partial curve] |
| Cc1nn(CCCC(=O)NCc2ccc(F)cc2)c(=O)c2nccn12 | inactive |
| Cc1ccc(-c2nc3ccccc3[nH]2)cn1 | inconclusive: 25.1 µM [inhibitor, single point] |
| Cc1nn(-c2ccccc2)c(C)c1CN | inactive |
| CS(=O)(=O)c1ccc2nc(NC(=O)CN3CCOCC3)sc2c1 | active: 4.47 µM |
| N#CC1(C#N)COC23CCCCC2C1(C#N)C(=N)O3 (centres undefined) | inconclusive: 15.8 µM [inhibitor, single point] |
| Cc1ccc(NC(=O)CSC2=NN3CCCC(=O)N=C3S2)cc1Cl | inactive |
| CCOC(=O)C(=CNc1nc2ccc(C(=O)OCC)cc2s1)C(=O)OCC | inactive |
| CC(=O)[C@H]1[C@H](c2cccc(Cl)c2)C(C#N)(C#N)[C@@H]2c3ccccc3C=CN21 | inconclusive: 14.1 µM [inhibitor, partial curve] |
| COc1ccc(-n2c(C)cc(C(=O)CSc3nnc(-c4cccs4)o3)c2C)cc1 | inconclusive: 15.8 µM [inhibitor, single point] |
| Oc1ccc2c(c1)C1CCCC1(N1CCOCC1)O2 (centres undefined) | inconclusive: 3.97 µM [inhibitor, partial curve] |

| SMILES | Potency |
| --- | --- |
| CSC1=C(C#N)C(c2ccccc2C)C(C#N)=C(N)N1 (centres undefined) | inconclusive: 17.7 µM [activator, single point] |
| C[C@H](CCC(=O)O)[C@H]1CC[C@@H]2[C@H]3CC[C@H]4C[C@H](O)CC[C@]4(C)[C@@H]3CC[C@@]21C | inconclusive: 17.7 µM [activator, partial curve] |
| Cc1ccc(C(=O)C2=C(O)C(=O)N(CCN3CCOCC3)C2c2ccccn2)o1 (centres undefined) | inconclusive: 15.8 µM [inhibitor, single point] |
| COc1cc(NC(=O)C2C3C=CC(C3)C2C(=O)O)c(OC)cc1Cl (centres undefined) | inconclusive: 22.3 µM [inhibitor, partial curve] |
| Cc1cc(C=C2C(=O)NC(=S)NC2=O)c(C)n1-c1ccc2c(c1)OCO2 | inactive |
| Cc1ccc(Nc2cc(C)c3c(O)cccc3n2)cc1C | inconclusive: 17.7 µM [inhibitor, partial curve] |
| CCCOc1ccc(C(=O)NNC(=S)NC(=O)c2cccs2)cc1 | inconclusive: 39.8 µM [activator, single point] |
| Nn1c(Cc2cccc3ccccc23)n[nH]c1=S | inconclusive: 19.9 µM [inhibitor, partial curve] |
| O=C1NC(=S)N(c2ccc(F)cc2)C(=O)/C1=C/c1ccco1 | inconclusive: 14.1 µM [inhibitor, partial curve] |
| O=c1c2c(nc3nc(Cc4ccccc4)[nH]n13)CCC2 | inconclusive: 19.9 µM [inhibitor, partial curve] |
| CC(=O)Nc1cccc(NC(=O)c2ccc(C(=O)Nc3cccc(NC(C)=O)c3)nc2)c1 | inactive |
| COc1ccc(C(=O)c2ccc(OC)cc2O)c(O)c1 | inactive |
| COc1ccc(OC)c2[nH]c(=O)c(CCNC(=O)Cc3cccs3)cc12 | inconclusive: 17.7 µM [inhibitor, single point] |
| COc1ccc(-c2noc(CCCc3ccccc3)n2)cc1OC | inactive |
| CC(C)(C)Cc1nnc(NS(=O)(=O)c2ccc([N+](=O)[O-])cc2)s1 | inconclusive: 39.8 µM [inhibitor, partial curve] |
| C[C@H](C(=O)OCO/N=[N+](\[O-])N1CCCC1)c1cccc2ccccc12 | inconclusive: 19.9 µM [inhibitor, partial curve] |
| COc1cc2c(cc1OC)/C(=C/C(=O)N1CCOCC1)NC(C)(C)C2 | inconclusive: 17.7 µM [inhibitor, single point] |
| COc1ccccc1CN1CCN(C(=O)c2ccco2)CC1 | inconclusive: 7.94 µM [inhibitor, partial curve] |
| COc1cccc(NC(=O)CN2CCCCCC2)c1 | inconclusive: 31.6 µM [inhibitor, single point] |
| Cc1cccc(Nc2cc(Cl)nc(SCC(=O)O)n2)c1C | inconclusive: 25.1 µM [activator, partial curve] |
| c1ccc(-c2nc3nonc3nc2-c2ccccc2)cc1 | inconclusive: 5 µM [inhibitor, partial curve] |
| CC(=O)Nc1nc(C(=O)O)cs1 | inconclusive: 19.9 µM [inhibitor, partial curve] |
